Like-named read-outs stand apart in the source and are kept apart here.
Legend:
CCRF-CEM/VBL [1] = experiment: cells; conditions: Homo sapiens, read-out: Cytotoxicity IC50, CCRF-CEM/VBL
CCRF-CEM/VBL [2] = conditions: for IC50: read-out: Cytotoxicity IC50, CCRF-CEM/VBL, Table 1, XTT, 72-hr incubation

SMILES | IC50 (CCRF-CEM/VBL [1]; 72 h) [nM] | further results
COc1cc(NC(=O)Oc2ccc(N(CCCl)CCCl)cc2)cc(Nc2c3ccccc3nc3ccccc23)c1 [BO-1066, [3-(acridin-9-ylamino)-5-methoxyphenyl]carbamic acid 4-[bis(2-chloroethyl)amino]phenyl ester] | 110 | –
Cc1ccc(Nc2c3ccccc3nc3ccccc23)cc1NC(=O)Oc1ccc(N(CCCl)CCCl)cc1 [BO-1171] | 160 | –
CN(C)CC(=O)Nc1cccc(NC(=O)Nc2ccc(N(CCCl)CCCl)cc2)c1 [BO-2189, N-(3-(3-(4-(bis(2-chloroethyl)amino)phenyl)ureido)phenyl)-2-(dimethyl-amino)acetamide] | – | IC50 (CCRF-CEM/VBL [1]): 2700 nM
O=C(CN1CCCC1)Nc1cccc(NC(=O)Nc2ccc(N(CCCl)CCCl)cc2)c1 [BO-2151, N-(3-(3-(4-(bis(2-chloroethyl)amino)phenyl)ureido)-phenyl)-2-(pyrrolidin-1-yl)acetamide] | – | IC50 (CCRF-CEM/VBL [1]): 970 nM
Cc1cccc2c(Nc3cc(CO)cc(NC(=O)Nc4ccc(N(CCCl)CCCl)cc4)c3)c3ccccc3nc12 [BO-1050, 1-{4-[bis(2-chloroethyl)amino]phenyl}-3-[3-hydroxymethyl-5-(4-methylacridin-9-ylamino)phenyl]urea] | 1800 | –
COc1ccc(Nc2c3ccccc3nc3ccccc23)cc1NC(=O)Nc1ccc(N(CCCl)CCCl)cc1 [BO-1148] | 50 | –
Cc1cccc2c(Nc3cc(CO)cc(NC(=O)Oc4ccc(N(CCCl)CCCl)cc4)c3)c3ccccc3nc12 [BO-1063, [3-hydroxymethyl-5-(4-methylacridin-9-ylamino)phenyl]carbamic acid 4-[bis(2-chloroethyl)-amino]phenyl ester] | 130 | –
Cc1cc(NC(=O)Nc2ccc(N(CCCl)CCCl)cc2)cc(Nc2c3ccccc3nc3ccccc23)c1 [BO-1079, 1-[3-(acridin-9-ylamino)-5-methylphenyl]-3-{4-[bis(2-chloroethyl)amino]phenyl}urea] | 600 | –
Cc1ccc(Nc2c3ccccc3nc3c(C)cccc23)cc1NC(=O)Oc1ccc(N(CCCl)CCCl)cc1 [BO-1064, [2-methyl-5-(4-methylacridin-9-ylamino)phenyl]-carbamic acid 4-[bis(2-chloroethyl)amino]phenyl ester] | 160 | –
Cc1ccc(NC(=O)Nc2ccc(N(CCCl)CCCl)cc2)cc1Nc1c2cccc(C)c2nc2c(C(=O)NCCN(C)C)cccc12 [BO-1053, 9-[5-(3-{4-[bis(2-chloroethyl)amino]phenyl}ureido)-2-methyl-phenylamino]-5-methyl-acridine-4-carboxylic acid (2-dimethylaminoethyl)amide] | 300 | –
O=C(CCN1CCCCC1)Nc1ccc(NC(=O)Nc2ccc(N(CCCl)CCCl)cc2)cc1 [BO-2057] | – | IC50 (CCRF-CEM/VBL [1]): 6200 nM
O=C(Nc1cc(CO)cc(Nc2c3ccccc3nc3ccccc23)c1)Oc1ccc(N(CCCl)CCCl)cc1 [BO-1062, [3-(acridin-9-ylamino)-5-hydroxymethylphenyl]carbamic acid 4-[bis(2-chloroethyl)amino]phenyl ester] | 180 | –
CCOC(=O)Nc1cc(COC(=O)Oc2ccc(N(CCCl)CCCl)cc2)cc(Nc2c3ccccc3nc3ccccc23)c1 [BO-1065, carbonic acid 3-(acridin-9-yl-amino)-5-ethoxycarbonylaminobenzyl ester 4-[bis(2-chloroethyl)amino]phenyl ester] | 480 | –
O=C(Nc1ccc(N(CCCl)CCCl)cc1)Nc1c2ccccc2nc2ccccc12 [BO-1034, 1-acridin-9-yl-3-{4-[bis(2-chloroethyl)amino]phenyl}urea] | 380 | –
COc1ccc(Nc2c3ccccc3nc3c(C)cccc23)cc1NC(=O)Oc1ccc(N(CCCl)CCCl)cc1 [BO-1213] | 190 | –
Cc1ccc(Nc2c3ccccc3nc3c(C)cccc23)cc1NC(=O)Nc1ccc(N(CCCl)CCCl)cc1 [BO-1051] | 130 | –
COc1ccc(Nc2c3ccccc3nc3c(C)cccc23)cc1NC(=O)Nc1ccc(N(CCCl)CCCl)cc1 [BO-1154] | 20 | –

SMILES | IC50 (CCRF-CEM/VBL [1]; 72 h) [nM] | further results
COc1ccc2nc(C)cc(NNC(=O)Nc3ccc(N(CCCl)CCCl)cc3)c2c1 [BO-1228, N-{4-[bis(2-chloroethyl)amino]phenyl}-2-(6-methoxy-2-methyl-4-quinolinyl)hydrazinecarboxamide] | 2020 | –
O=C(Nc1ccc(Nc2cc(-c3ccccc3)nc3ccccc23)cc1)Nc1ccc(N(CCCl)CCCl)cc1 [BO-2294] | 2530 | –
Cc1cccc2c(Nc3cc(COC(=O)Nc4ccc(N(CCCl)CCCl)cc4)cc(NC(=O)OCC(C)C)c3)c3ccccc3nc12 [BO-1245] | – | IC50 (CCRF-CEM/VBL [2]): 6.42 µM
Cc1cc(NNC(=O)Nc2ccc(N(CCCl)CCCl)cc2)c2ccccc2n1 [BO-1233, N-{4-[bis(2-chloroethyl)amino]phenyl}-2-(2-methyl-4-quinolinyl)hydrazinecarboxamide] | 850 | –
Cc1cc(NC(=O)Nc2ccc(N(CCCl)CCCl)cc2)c2ccccc2n1 [BO-1038, 1-{4-[bis(2-chloroethyl)amino]phenyl}-3-(2-methylquinolin-4-yl)urea] | 660 | –
O=C(NNc1cc(-c2ccccc2)nc2ccccc12)Nc1ccc(N(CCCl)CCCl)cc1 [BO-1393] | 1220 | –
O=C(Nc1ccc(N(CCCl)CCCl)cc1)Nc1cc(CO)cc(Nc2c3ccccc3nc3ccccc23)c1 [BO-1037, 1-[3-(acridin-9-ylamino)-5-hydroxymethylphenyl]-3-{4-[bis(2-chloroethyl)amino]phenyl}urea] | 64100 | –
Cc1ccc(Nc2c3ccccc3nc3ccccc23)cc1NC(=O)Nc1ccc(N(CCCl)CCCl)cc1 [BO-1150] | – | IC50 (CCRF-CEM/VBL [2]): 0.03 µM
Cc1ccc(NC(=O)Nc2ccc(N(CCCl)CCCl)cc2)cc1Nc1c2ccccc2nc2c(C)cccc12 [BO-1149] | 20 | –
COc1ccc2nc(C)cc(Nc3cccc(NC(=O)Nc4ccc(N(CCCl)CCCl)cc4)c3)c2c1 [BO-1547] | 4130 | –
O=C(CN1CCCC1)Nc1ccc(NC(=O)Nc2ccc(N(CCCl)CCCl)cc2)cc1 [BO-2093] | – | IC50 (CCRF-CEM/VBL [1]): 2000 nM
CC[C@]1(O)C[C@@H]2CN(CCc3c([nH]c4ccccc34)[C@@](C(=O)OC)(c3cc4c(cc3OC)N(C)[C@H]3[C@@](O)(C(=O)OC)[C@H](OC(C)=O)[C@]5(CC)C=CCN6CC[C@]43[C@@H]65)C2)C1 [Vinblastine, reference compound] | 500 | Resistance of CCRF-CEM/VBL compared with IC50 of the parent cell line (CCRF-CEM/VBL [2]): 680 fold
O=C(NNc1cc(-c2ccccc2)nc2cc3c(cc12)OCO3)Nc1ccc(N(CCCl)CCCl)cc1 [BO-1391] | 500 | –
COc1ccc(Nc2c3ccccc3nc3ccccc23)cc1NC(=O)Oc1ccc(N(CCCl)CCCl)cc1 [BO-1172] | 120 | –
Cc1cc(NNC(=O)Nc2ccc(N(CCCl)CCCl)cc2)c2cc(N(C)C)ccc2n1 [BO-1242] | 6950 | –
O=C(Nc1ccc(N(CCCl)CCCl)cc1)Nc1cccc(Nc2cc(-c3ccccc3)nc3ccccc23)c1 [BO-2295] | 2110 | –

Source: patent US9193687B2 (priority 2007, dated 2015)
